Laboratory results published in the supplement of paper PMC7125110.
Variants at the floor of the assay are shown more often than the library holds them.

B1: glmS ribozyme (parent)
chain: AUAAAAGCGCCAGAACUACAGAAAUGUAGUUGACGAGGAGGAGGUUUAUCGAAUUUUCGGCGGAUGCCUCCAAA

Variants of: B1
Assay: self-cleavage kobs at 2500 uM GlcN6P; higher = faster cleavage; RNA array
Details: with glucosamine-6-phosphate
How it was run: (§1)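 Glucosamine-6-phosphate (40 μM to 10 mM) in HEPES/KCl/Mg(OAc)2 buffer was flowed over sequenced MiSeq chips, and tiles were imaged over ~14 h. Barcoded ribozyme variants there had been transcribed in situ by E. coli RNA polymerase and were tracked through a hybridised Cy3 probe at 37 °C. One- or two-exponential decay fits to per-tile medians, normalised to baseline and to non-cleaving reference variants, gave kobs. kcat and KM came from weighted Michaelis–Menten fits across concentrations.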

self-cleavage kobs at 2500 uM GlcN6P, < 1e-05 s⁻¹:
AUAAAAGGGCCAGAACUACAGAAAUGUAGUUGUCGAGUAGGAGGUUUAUCGAAUUUUCGGCGGCUGCCUCCAAA [C8G A33U G38U A64C]
AUAAAAGGGCCAGAAGUACAGAAAUGUAGUUGACGAGGAGGAGGUUUAUCGAAUUUUCGGCGUAUGCCUCCAAA [C8G C16G G63U]
AUAAAAUCGCCAGAACUACAGAAAUGUAGUUGACGAGGAGGAGGUUUAUCUAAUUUUCGGCGCAUGCCUCCAAA [G7U G51U G63C]
AUAAAAGGGCCAGAACUACAGAAAUGUAAUUGACGAGGUGGAGGUUUAUCGAAUUUUCGGCGGAUGCCUUUAAA [C8G G29A A39U C70U C71U]
AUAAAAGGGCCAGAACUACAGAAAUGUAGUUGACGAGCAGGAGGUUUAUCGAAAUUUCGGCGGAUACCGCCAAA [C8G G38C U54A G66A U69G]
AUAAAAGAGCCAAAGCUACAGAAAUGUAGUUGACGAGGAUGAUGUUUAUCGAAUUUUCGGCGGAUGCCUCCAAA [C8A G13A A15G G40U G43U]
AUAAAAGAGCCAGAACUACAGAAAUGUAGUUGACGUGGAGGAGGUUUAUCGAAUUUUGGGCGGAUGCCUCUAAA [C8A A36U C58G C71U]
AUAAAAGGGCCAGAUCUACAGAAAUGUAGUUGACCACGAGGCGGUUUAUCGAAUUUUCGGCGGAUGCCUCCAAA [C8G A15U G35C G37C A42C]
AUAAAAGAGCCAGAACUACAGAAAUGUAGUUGACGAGGAGGAGUUUUAUCGAAUAUUCGGCGGAUGCCUCCAAA [C8A G44U U55A]
AUAAAAGGGCCAGAACUACAGAAAUGUAGAUUACGAGGAGGAGGUUUAUCGGAUUUUCGGCGGAUGCCUCCAAA [C8G U30A G32U A52G]
AUAAAAGGGCCAGAACUACAGAAAUGUAGUGGACGAGGAGGAGGUUUAUCGAAUUUUCGGCGGAUACCUCCAAA [C8G U31G G66A]
AUAAAAGGGCCAGAAGUACAGAAAUGUAGUUGACGAGGAGGAGGUUUAUCGAAUUAUCGGCGGAUGCCUCCAAA [C8G C16G U56A]
AUAAAAGAGCCAGAACUACAGAAAUGUAGUUUACGAGGAGGAAGUUUAUCGAAUUUUCGGCGGAUGCCUCCAAA [C8A G32U G43A]
AUAAAAGGGCCAGAACUACAGAAAUGUAGUUGACGAGGAAGAGGAUUAUCGAAUUUUCGGCGGAUGCCUCCAAA [C8G G40A U45A]
AUAAAAGAGCCAGAAAUACAGAAAUGUAGUUGACGAGAAGGAGGUUUAUCGAGUUUUCGGCGGAUGCCUCCAAA [C8A C16A G38A A53G]
AUAAAAGAGCUACAACUACAGAAAUGUAGUUGACGAGGAGGAGGUUUAUCGAAUUUUCGGCGGAUGCCUCCAAA [C8A C11U G13C]
AUAAAAGGGCCAGAACUACAGAAAUGUAGGUGACGAGGAGGAGGUUUCUCGAAUUUUCGGCGGAUGCCUCCAAA [C8G U30G A48C]
AUAAAAGAGCCAGAACUACAGAAAUGUAGUUGACGAGGAAGAGGUUUAUCCAAUUUUUGGCGGAUGCCUCCAAA [C8A G40A G51C C58U]
AUAAAAGAGCCAUAACUACAGAAAUGUAGUUGACGAGGAGGAGGUUUAUCGAGUUUUCGGCGGAGGCCUCCAAA [C8A G13U A53G U65G]
AUAAAAGAGCCAGAACUACAGAAAUGUAGUUGUCGAGGAGGAGUUUUAUCGAAUAUGCGGCGGAUGCCUCCAAA [C8A A33U G44U U55A U57G]
AUAAAAGGGCCAAAACUACAGAAAUGUAGUUGACGAGGAGGAGGUUUAUCGAAUUUUCGGCGGAUGCCGCCAAA [C8G G13A U69G]
AUAAAAGGGCCAGAACUACAGAAAUGUAGUUGACGAGUAGGAGGUUUAUCGAAUUUGCGGCGGAUGCCUCCAAA [C8G G38U U57G]
AUAAAAGGGCCAGAACUACAGAAAUGUAGUUGACGAGGAGGGGGUUUAUCGAAUUUUCGGCGGAUUCCUCCAAA [C8G A42G G66U]
AUAAAAGAGCCAGAACUACAGAAAUGUAGUUGACGAAGAGGAUGUUUAUCGAAUUUUCGGCGGAUGCCUCCAAA [C8A G37A G43U]
AUAAAAGAGCCAGAACUACAGAAAUGUAGUUGCCGAGGAGGGGGUUUAUCGAAUUUUCGGCGGAGGCCUCCAAA [C8A A33C A42G U65G]
AUAAAAGAGCCAGAAGUACAGAAAUGUAGUUGACGAGAAGGAGGUUUAUCGAAUUUUCGGCGGGUGCAUCCAAA [C8A C16G G38A A64G C68A]
AUAAAAUCGCCAGAACUACAGAAAUGUAGUUGACGAGGAGGAGGUCUGUUGAAUGUUCGGCGGAUGCCUCCAAA [G7U U46C A48G C50U U55G]
AUAAAAGAGCCAGAACUACAGAAAUGUAGUUGACGAGGAGGAGGUUUAUCGAAUUUUCGGCGGAUGCUUCCAAA [C8A C68U]
AUAAAAGGGCCAGUACUACAGAAAUGUAGUUGACGAGGAGGAGGUUUAUCGAAUUUUCGGCGGGUGCCUCCAAA [C8G A14U A64G]
AUAAAAUCGCCAGAACUACAGAAAUGUAGUUGACGAGGAGGAGGUUUAUCGAAUUUUCGGCGGAUCCCUCCAAA [G7U G66C]
AUAAAAGGGCCACAAGUACAGAAAUGUAGUUGACGAGGAGGAGGUUUAUCGCAUUUUCGGCGGAUGCCUCCAAA [C8G G13C C16G A52C]
AUAAAAGGGCCAGAACUACAGAAAUGUAGAUGACGAGGAGGAGGUUUAUCGAAUUUUCCGCGGAUGCCUCCAAA [C8G U30A G59C]
AUAAAAGAGCCAGAACUACAGAAAUGUAUUUGACGAGGAGGAGGUUUAUCGAAUUUUCGGUGGAUGCCUCCAAA [C8A G29U C61U]
AUAAAAGAGCCAGAACUACAGAAAUGUAGUUGACGAGGAGGAGGUUUAUCGACUUUUCGGCGGAUGCCUUCAAA [C8A A53C C70U]

Variants of: B1
Assay: self-cleavage kobs at 10000 uM GlcN6P; higher = faster cleavage; RNA array
Details: with glucosamine-6-phosphate
How it was run: as §1

self-cleavage kobs at 10000 uM GlcN6P, < 1e-05 s⁻¹:
AUAAAAGGGCCAGAACUACAGAAAUGUAGUUGACGAGCAGGAGGUUUAUCGAAAUUUCGGCGGAUACCGCCAAA [C8G G38C U54A G66A U69G]
AUAAAAUCGCCAGAACUACAGAAAUGUAGUUGACGAGGAGGAGGUCUGUUGAAUGUUCGGCGGAUGCCUCCAAA [G7U U46C A48G C50U U55G]
AUAAAAUCGCCAGAACUACAGAAAUGUAGUUGACGAGGAGGAGGUUUAUCGAAUUUUCGGCGGAUCCCUCCAAA [G7U G66C]
